Publication PMC11393453, “Phosphorylation of tau at a single residue inhibits binding to the E3 ubiquitin ligase, CHIP” (Nature Communications, 2024)

Biological target: CHIP (C-terminus of Hsc70 interacting protein; STUB1), recombinant human, full-length (human) (UniProt Q9UNE7)
Chain of UniProt Q9UNE7 (Q9UNE7 whole entry): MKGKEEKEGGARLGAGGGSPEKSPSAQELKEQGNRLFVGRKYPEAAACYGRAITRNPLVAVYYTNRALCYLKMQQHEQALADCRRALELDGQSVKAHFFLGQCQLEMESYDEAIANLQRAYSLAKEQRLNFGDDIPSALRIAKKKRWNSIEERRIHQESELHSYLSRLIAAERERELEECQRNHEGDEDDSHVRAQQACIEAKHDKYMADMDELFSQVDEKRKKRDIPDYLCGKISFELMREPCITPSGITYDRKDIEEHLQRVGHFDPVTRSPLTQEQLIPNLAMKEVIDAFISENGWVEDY

Kd: 500 nM
Substance: full length p.tau, produced in Sf9 cells (a stretch of the chain, no sequence given) (natural protein; phosphorylated in Sf9 cells; sites not printed; other documents disagree on this pair)
